{"source": "paper PMC7819943", "about": "“Rice protein-binding microarrays: a tool to detect cis-acting elements near promoter regions in rice”", "note": "Some of the results follow."}
{"biological_target": "T1, OsWOX13 (Oryza sativa, UniProt Q5QMM3 1-267)", "T1 sequence": "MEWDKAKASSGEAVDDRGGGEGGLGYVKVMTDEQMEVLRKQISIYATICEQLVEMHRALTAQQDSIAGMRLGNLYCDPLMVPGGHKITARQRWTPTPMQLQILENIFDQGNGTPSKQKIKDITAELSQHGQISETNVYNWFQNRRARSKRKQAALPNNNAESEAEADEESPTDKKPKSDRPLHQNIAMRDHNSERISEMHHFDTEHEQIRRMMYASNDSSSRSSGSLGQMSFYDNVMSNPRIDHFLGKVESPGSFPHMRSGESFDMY", "assay": "protein-binding microarray (RPBM); PBS, 2% BSA, 51.3 ng/ul salmon testes DNA, 50 uM zinc acetate, 200 nM TF, 25 C, 1 h; high values mean tight binding", "conditions": "protein: recombinant; tags: N-terminal polyhistidine and DsRed monomer fusion (pET32a); label: CyDye5-dUTP incorporated in the synthesized complementary strand; 3' TTTTT single-stranded linker to array surface; dsDNA, one strand shown", "how_it_was_run": "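Binding signal here means per-feature fluorescence intensity in arbitrary units. The values were read on an Axon 4000B scanner after a custom Agilent array, double-stranded by primer extension with Cy5-dUTP, was incubated with 200 nM protein at 25 °C for 1 h in PBS with 2% BSA, salmon testes DNA and 50 µM zinc acetate, then washed. The proteins were transcription factors with an N-terminal polyhistidine tag and DsRed, expressed in E. coli BL21-CodonPlus and purified on Ni–NTA.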"}
{"sequence": "GTATAATTATTGTCTACGATGTCTACTTCAACATTAAGTACGGAGTCACCTAGTGCAG", "binding signal": "21700 fluorescence intensity (a.u.)"}
{"sequence": "CATTGTATGTTTATAGGTAATTATTGTATGAATTGGCTACCGGAGTCACCTAGTGCAG", "binding signal": "4760 fluorescence intensity (a.u.)"}
{"sequence": "TCGTTAATACAAATTTCTGTTTAAAATTTCACATCTATTCCGGAGTCACCTAGTGCAG", "binding signal": "4400 fluorescence intensity (a.u.)"}
{"sequence": "GTTAGACAGTTCACTTATTGTTGGTAGCTAGTGATCTGGACGGAGTCACCTAGTGCAG", "binding signal": "4590 fluorescence intensity (a.u.)"}
{"sequence": "ACCTGCAAATTATTTCCAATCATTCGAGTCATTCGCTAAACGGAGTCACCTAGTGCAG", "binding signal": "31200 fluorescence intensity (a.u.)"}
{"sequence": "GAAATCATTGACTGTCTTCTTTACCTGTTCTTTGGCAGAACGGAGTCACCTAGTGCAG", "binding signal": "15400 fluorescence intensity (a.u.)"}
{"sequence": "AGCTTGTTAAATCAATTAATAAGCATTTGTTTAGTCTAAGCGGAGTCACCTAGTGCAG", "binding signal": "8810 fluorescence intensity (a.u.)"}
{"sequence": "TAGCATTAAATTGAAGTATGGAATAGTGGTGTTTGTATTGCGGAGTCACCTAGTGCAG", "binding signal": "14200 fluorescence intensity (a.u.)"}
{"sequence": "GGTATGATTTGCGCACTCATTCTGCAGATGGGGAAGAACTCGGAGTCACCTAGTGCAG", "binding signal": "21800 fluorescence intensity (a.u.)"}
{"sequence": "CGTTTGAGCTATGATTGATGCATGAGTTGCAAGGATGCAACGGAGTCACCTAGTGCAG", "binding signal": "23700 fluorescence intensity (a.u.)"}
{"sequence": "TCTCATCAATTGAATGGATATTATATTTTAATGTGTTCAGCGGAGTCACCTAGTGCAG", "binding signal": "8660 fluorescence intensity (a.u.)"}
{"sequence": "ATTAAACTGCCATTAGCACATGTAGGTTACTGTAACACTTCGGAGTCACCTAGTGCAG", "binding signal": "12800 fluorescence intensity (a.u.)"}
{"sequence": "TTGATTTTATTTACCGGATTATTGAAACAGATTATTTGTTCGGAGTCACCTAGTGCAG", "binding signal": "9450 fluorescence intensity (a.u.)"}
{"sequence": "ATGATAATACCTTCTATCAACGGAGTACTAATTTCAGTAACGGAGTCACCTAGTGCAG", "binding signal": "5130 fluorescence intensity (a.u.)"}
{"sequence": "TCTAATTGAGTGTCTACATATGCAGAGTTAATGCTTCTGGCGGAGTCACCTAGTGCAG", "binding signal": "30300 fluorescence intensity (a.u.)"}
{"sequence": "ACAATAAATGTGAATAATTGTAGCAGCAGCACGAACGTAGCGGAGTCACCTAGTGCAG", "binding signal": "5950 fluorescence intensity (a.u.)"}
{"sequence": "ATTCATTATATCCAATCTAATAGGCAATTCATACAATAGTCGGAGTCACCTAGTGCAG", "binding signal": "5120 fluorescence intensity (a.u.)"}
{"sequence": "GATAGACTAATTGGTAAACACACATCAGAATATCAGATATCGGAGTCACCTAGTGCAG", "binding signal": "25100 fluorescence intensity (a.u.)"}
{"sequence": "CATGTTAAACAATCTAGAATGACAATTAATATGGGATGGACGGAGTCACCTAGTGCAG", "binding signal": "8530 fluorescence intensity (a.u.)"}
{"sequence": "GCGACCTAATCTCATCACTGATTACACCCAACAACAACACCGGAGTCACCTAGTGCAG", "binding signal": "15500 fluorescence intensity (a.u.)"}
{"sequence": "TCAAAATCTGATACAAATCAATCATACCGCGACATCGCACCGGAGTCACCTAGTGCAG", "binding signal": "13800 fluorescence intensity (a.u.)"}
{"sequence": "ATAATAACAGATTTTGTTAACGAAACTGCACCCAACTCTGCGGAGTCACCTAGTGCAG", "binding signal": "26600 fluorescence intensity (a.u.)"}
{"sequence": "GGATAAAATTTAAACTTATTATATTTTAGGTCGGTGGGAACGGAGTCACCTAGTGCAG", "binding signal": "3790 fluorescence intensity (a.u.)"}
{"sequence": "AAGTTTAAAATTATTAATACTCAATTAATCATGCGCTCATCGGAGTCACCTAGTGCAG", "binding signal": "4150 fluorescence intensity (a.u.)"}
{"sequence": "CCCAATAATCAATCCAGATTTTCGCAGTCGATGCAGATTGCGGAGTCACCTAGTGCAG", "binding signal": "16100 fluorescence intensity (a.u.)"}
{"sequence": "ACACATAGACATCTGAGGCTAATTAGCTCTGTTAATCGCGCGGAGTCACCTAGTGCAG", "binding signal": "9020 fluorescence intensity (a.u.)"}
{"sequence": "ACGAAAATTGAATTCGCTGACAAGTTAAGGGACCTTAGATCGGAGTCACCTAGTGCAG", "binding signal": "15700 fluorescence intensity (a.u.)"}
{"sequence": "TGCGTGATTAGCTGATAATACACGTGAATTATGTATGACGCGGAGTCACCTAGTGCAG", "binding signal": "52800 fluorescence intensity (a.u.)"}
{"sequence": "CGTAATTGTTTAGTTGCAAAAGGATAAGCACCAAACCAAACGGAGTCACCTAGTGCAG", "binding signal": "12400 fluorescence intensity (a.u.)"}
{"sequence": "CAACAAATCAACACTGTTCGTCTGTCCCTACGTACCGGACCGGAGTCACCTAGTGCAG", "binding signal": "3560 fluorescence intensity (a.u.)"}
{"sequence": "TCTCGATCGACTAGTAATTAATTATACTTATCATTTAAACCGGAGTCACCTAGTGCAG", "binding signal": "11300 fluorescence intensity (a.u.)"}
{"sequence": "ATGAATTGTTAATTTTGCAAGCTGAACTTCTCATGTTTGGCGGAGTCACCTAGTGCAG", "binding signal": "11100 fluorescence intensity (a.u.)"}
{"sequence": "CAAATCATCAAATTACGATTTTAACGTCAAATATTTATGACGGAGTCACCTAGTGCAG", "binding signal": "6690 fluorescence intensity (a.u.)"}
{"sequence": "GCTAAATAATTGAAAGGAATAAGTTCACTTGAGGTCTCTCCGGAGTCACCTAGTGCAG", "binding signal": "33800 fluorescence intensity (a.u.)"}
{"sequence": "TTATAATAAATCAATAATTTAAGACCTTTATATTTGACTGCGGAGTCACCTAGTGCAG", "binding signal": "15800 fluorescence intensity (a.u.)"}
{"sequence": "GTTTGATCGATTTTGTCTCTAATTTTAGGCAACTGGCATTCGGAGTCACCTAGTGCAG", "binding signal": "6670 fluorescence intensity (a.u.)"}
{"sequence": "TCGATATAATTAATCATTTCCAAGCGGTGTCGTTGTTTGGCGGAGTCACCTAGTGCAG", "binding signal": "20600 fluorescence intensity (a.u.)"}
{"sequence": "TATGTCAATTATCATAGGGTTAAATTGAAAACTACGAATTCGGAGTCACCTAGTGCAG", "binding signal": "29900 fluorescence intensity (a.u.)"}
{"sequence": "ATTTGACGGACCCACATAAATCATGATCAGCATTCTGCAACGGAGTCACCTAGTGCAG", "binding signal": "5240 fluorescence intensity (a.u.)"}
{"sequence": "TATGACATGTCTTTATTAATTTATATATAAGTATGTAAAACGGAGTCACCTAGTGCAG", "binding signal": "6490 fluorescence intensity (a.u.)"}
{"sequence": "TATACCTGTTTGATGGTTGCTAATTGCCCAGCAAACATCACGGAGTCACCTAGTGCAG", "binding signal": "3820 fluorescence intensity (a.u.)"}
{"sequence": "TATAGATAAATTCTCTAAGATAATTTGCACACAATATTGACGGAGTCACCTAGTGCAG", "binding signal": "4270 fluorescence intensity (a.u.)"}
{"sequence": "TCGCTGGCGTTGACGACGCAAATTGACGCGACGCGAGCCCCGGAGTCACCTAGTGCAG", "binding signal": "4430 fluorescence intensity (a.u.)"}
{"sequence": "AATCACGCGCTAATAGACTATTATGTTTTCCGTATGCACTCGGAGTCACCTAGTGCAG", "binding signal": "6060 fluorescence intensity (a.u.)"}
{"sequence": "TTAAATTTAAAATACTACAATGACGTGATCCAGAGCCTCTCGGAGTCACCTAGTGCAG", "binding signal": "9430 fluorescence intensity (a.u.)"}
{"sequence": "GTTTGATTTGCAAGAGCAAGTGGCAACCATCCAACCATCCCGGAGTCACCTAGTGCAG", "binding signal": "34100 fluorescence intensity (a.u.)"}
{"sequence": "CAAATAATCCACAATCAATAAGCCGAAAAGAACAAGACCTCGGAGTCACCTAGTGCAG", "binding signal": "3340 fluorescence intensity (a.u.)"}
{"sequence": "ATCTAAATTGGTAGTATTAGAATATCTTCTATCTGCTCAACGGAGTCACCTAGTGCAG", "binding signal": "26300 fluorescence intensity (a.u.)"}
{"sequence": "TGTGATTTTCTGTAAATTTAACTATAGATCATGTGGTTTTCGGAGTCACCTAGTGCAG", "binding signal": "21900 fluorescence intensity (a.u.)"}
{"sequence": "GAAAGATGATTTGGCAAGTAAATAAATAAGAAAAGAGAAGCGGAGTCACCTAGTGCAG", "binding signal": "4860 fluorescence intensity (a.u.)"}
{"sequence": "CCGCGTGACCAATTGACATGTCGGCCACCCAACAAGTGGGCGGAGTCACCTAGTGCAG", "binding signal": "4850 fluorescence intensity (a.u.)"}
{"sequence": "TTGAATAGGGGTTTAATTAGATTCGTAGTTTTAGAATACGCGGAGTCACCTAGTGCAG", "binding signal": "7620 fluorescence intensity (a.u.)"}
{"sequence": "ACCAAATTTGATCGTTAACATTGAGCCCATCAACTTTTGACGGAGTCACCTAGTGCAG", "binding signal": "27500 fluorescence intensity (a.u.)"}
{"sequence": "TTAAATAAATCATTGCAGTGTAAATGGTAATATTCAGGCCCGGAGTCACCTAGTGCAG", "binding signal": "12200 fluorescence intensity (a.u.)"}
